No constants are given. Whether binding was seen depends on the method and setting. Binding seen in cells or lysates may run through a third protein. Some entries that bind do so weakly or less than the wild type. For part of these data: Sequences can lack the tags named with a protein.

The chains behind the UniProt entries cited, without tags or fusion partners.
UniProt O70145: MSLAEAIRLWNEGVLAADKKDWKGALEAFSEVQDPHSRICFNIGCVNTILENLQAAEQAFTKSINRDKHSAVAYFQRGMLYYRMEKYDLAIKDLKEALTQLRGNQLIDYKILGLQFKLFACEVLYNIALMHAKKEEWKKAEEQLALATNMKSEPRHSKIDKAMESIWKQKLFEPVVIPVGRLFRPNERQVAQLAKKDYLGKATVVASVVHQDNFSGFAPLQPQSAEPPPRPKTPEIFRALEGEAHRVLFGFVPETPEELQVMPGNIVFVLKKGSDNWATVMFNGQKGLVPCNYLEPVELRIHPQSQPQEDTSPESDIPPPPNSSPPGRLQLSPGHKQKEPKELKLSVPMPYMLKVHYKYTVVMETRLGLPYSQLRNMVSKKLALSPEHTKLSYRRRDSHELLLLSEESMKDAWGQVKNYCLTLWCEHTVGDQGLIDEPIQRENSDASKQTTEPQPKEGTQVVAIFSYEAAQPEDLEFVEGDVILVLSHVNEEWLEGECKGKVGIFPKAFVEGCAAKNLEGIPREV

Assay [1] addresses T1, apoptosis-associated speck-like protein containing a CARD (ASC), endogenous in mouse BMDMs (mouse (endogenous in BMDMs)) (UniProt Q9EPB4).
T1 sequence: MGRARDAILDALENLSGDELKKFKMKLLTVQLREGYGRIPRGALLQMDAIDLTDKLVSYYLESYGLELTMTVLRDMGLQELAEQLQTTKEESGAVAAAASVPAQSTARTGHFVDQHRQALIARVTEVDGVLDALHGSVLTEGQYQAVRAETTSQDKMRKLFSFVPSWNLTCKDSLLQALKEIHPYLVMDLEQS
Kind of assay: co-IP; endogenous proteins in WT and Asc^–/– BMDMs, untreated, LPS (500 ng/mL) or LPS plus ATP (5 mM, 15 min); IP with anti-ASC, anti-NCF4 or anti-NCF1; IP buffer 50 mM Tris-HCl pH 7.4, 150 mM NaCl, 1% NP-40; immunoblot. On the technique in general: Immunoblotting shows a protein as a band on a membrane.

The target of assay [2] is T2, NCF1 (p47^phox), endogenous in mouse BMDMs (mouse (endogenous in BMDMs)) (UniProt Q09014).
T2 sequence: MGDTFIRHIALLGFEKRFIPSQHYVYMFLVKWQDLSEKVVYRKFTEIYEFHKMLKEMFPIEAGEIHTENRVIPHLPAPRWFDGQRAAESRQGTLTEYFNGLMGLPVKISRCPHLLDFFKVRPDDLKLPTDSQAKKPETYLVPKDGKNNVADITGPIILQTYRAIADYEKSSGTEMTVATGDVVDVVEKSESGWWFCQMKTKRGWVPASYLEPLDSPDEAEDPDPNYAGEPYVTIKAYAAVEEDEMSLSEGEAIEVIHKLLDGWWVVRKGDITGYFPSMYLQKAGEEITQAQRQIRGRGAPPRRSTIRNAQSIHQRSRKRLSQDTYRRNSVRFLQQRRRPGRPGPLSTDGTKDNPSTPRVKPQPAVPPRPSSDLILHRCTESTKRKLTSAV
The description is as above.

In assay [3] the target is T3, NCF4 (p40^phox), endogenous in mouse BMDMs (mouse (endogenous in BMDMs)) (UniProt P97369).
T3 sequence: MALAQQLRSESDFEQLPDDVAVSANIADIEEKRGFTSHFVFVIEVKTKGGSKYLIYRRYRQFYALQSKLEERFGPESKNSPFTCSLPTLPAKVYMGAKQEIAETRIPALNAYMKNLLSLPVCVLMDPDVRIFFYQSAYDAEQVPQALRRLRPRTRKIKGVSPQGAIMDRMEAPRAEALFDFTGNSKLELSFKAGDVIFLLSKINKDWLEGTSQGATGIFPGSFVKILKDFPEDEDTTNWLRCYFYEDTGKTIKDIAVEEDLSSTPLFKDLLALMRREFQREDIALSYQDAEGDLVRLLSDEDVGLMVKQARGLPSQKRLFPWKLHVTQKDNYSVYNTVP
The assay is described as above.

In a further assay the target is T4, V5-ASC-CARD (mouse) (UniProt Q9EPB4).
T4 sequence: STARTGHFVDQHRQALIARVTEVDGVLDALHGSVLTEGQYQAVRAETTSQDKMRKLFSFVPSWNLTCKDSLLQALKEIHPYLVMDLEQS
Kind of assay: co-IP; HEK293T cells transfected with tagged plasmids, collected 36 h after transfection; IP buffer 50 mM Tris-HCl pH 7.4, 2 mM EDTA, 150 mM NaCl, 1% NP-40, 10% glycerol, 1 mM DTT; protein A/G agarose, 12 h at 4 °C; immunoblot.

Another assay concerns the target T5, V5-ASC (mouse) (UniProt Q9EPB4).
T5 sequence: T1 sequence
Described as above.

The target in assay [4] is T6, WT NCF4, transduced into Ncf4^–/– BMDMs (mouse) (UniProt P97369).
T6 sequence: T3 sequence
The assay is described as follows: co-IP; Ncf4^–/– BMDMs transduced with control plasmid (PCDH), WT NCF4 or NCF4^MT; untreated, LPS (500 ng/mL, 4.5 h) or LPS plus ATP (5 mM, 15 min); co-IP of transduced NCF4, immunoblot for ASC and NOX2.

Turning to “NCF2 (p67^phox), endogenous in mouse BMDMs (from UniProt O70145 1-525)”, the binding entry in assay [1], in assay [2] and in assay [3] was “binds” each time.

For “NCF2, transfected in HEK293T cells (from UniProt O70145 1-525)”, the binding entry with V5-ASC-CARD (mouse) and with V5-ASC (mouse) was “binds” throughout.

B1: NCF4 (p40^phox), endogenous in mouse BMDMs (protein, UniProt P97369 1-339)
chain: T3 sequence
For B1, the binding entry in assay [1] and in assay [2] was “binds” each time.

B2: FLAG-NCF4 (full length) (protein, UniProt P97369 1-339)
chain: T3 sequence
As for B2, the binding result with V5-ASC-CARD (mouse) was “no binding”; with V5-ASC (mouse), “binds”.

B3: NCF1, transfected in HEK293T cells (protein, UniProt Q09014 1-390)
chain: T2 sequence
Regarding B3, in the assay with V5-ASC (mouse), the binding result is “binds”.

B4: NCF1 (p47^phox), endogenous in mouse BMDMs (protein, UniProt Q09014 1-390)
chain: T2 sequence
As for B4, the binding entry in assay [1] and in assay [3] was “binds” in each case.

B5: NOX2 (gp91^phox), endogenous in mouse BMDMs (protein, UniProt Q61093 1-570)
chain: MGNWAVNEGLSIFVILVWLGLNVFLFINYYKVYDDGPKYNYTRKLLGSALALARAPAACLNFNCMLILLPVCRNLLSFLRGSSACCSTRIRRQLDRNLTFHKMVAWMIALHTAIHTIAHLFNVEWCVNARVGISDRYSIALSDIGDNENEEYLNFAREKIKNPEGGLYVAVTRLAGITGIVITLCLILIITSSTKTIRRSYFEVFWYTHHLFVIFFIGLAIHGAERIVRGQTAESLEEHNLDICADKIEEWGKIKECPVPKFAGNPPMTWKWIVGPMFLYLCERLVRFWRSQQKVVITKVVTHPFKTIELQMKKKGFKMEVGQYIFVKCPKVSKLEWHPFTLTSAPEEDFFSIHIRIVGDWTEGLFNACGCDKQEFQDAWKLPKIAVDGPFGTASEDVFSYEVVMLVGAGIGVTPFASILKSVWYKYCDNATSLKLKKIYFYWLCRDTHAFEWFADLLQLLETQMQERNNANFLSYNIYLTGWDESQANHFAVHHDEEKDVITGLKQKTLYGRPNWDNEFKTIASEHPNTTIGVFLCGPEALAETLSKQSISNSESGPRGVHFIFNKENF
Turning to B5, the binding entry in assay [2], in assay [3] and in assay [4] was “binds” in each case.

The values are drawn from PMC11183137.
